From patent publication US20240050583A1, “PROTEIN-DRUG CONJUGATE AND SITE-SPECIFIC CONJUGATING METHOD” (HARBOUR BIOMED (SHANGHAI) CO., LTD, priority 2020, published 2024) come the findings set out here.

Data set [1] concerns the target T1, HEK293/hCTLA4 cells highly expressing human CTLA4 (Homo sapiens, UniProt P16410).
T1 construct: host or cells: HEK293/hCTLA4 (HEK293T-derived)
T1 sequence (P16410 36-223): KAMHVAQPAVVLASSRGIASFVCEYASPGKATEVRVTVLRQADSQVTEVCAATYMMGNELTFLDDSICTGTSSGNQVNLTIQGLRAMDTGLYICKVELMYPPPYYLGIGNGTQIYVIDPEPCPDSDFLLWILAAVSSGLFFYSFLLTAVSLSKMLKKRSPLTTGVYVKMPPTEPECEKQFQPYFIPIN
The experiment in a line: FACS binding to cells highly expressing CTLA4. As to conditions: flow cytometry FACS. The protocol: The binding ability of the antibody molecules to an HEK293T cell strain HEK293/hCTLA4 (constructed by Harbour BioMed) highly expressing human CTLA4 and other cells was determined by flow cytometry FACS. Specifically, the HEK293/hCTLA4 cells were digested and resuspended in a DMEM medium, with the cell density adjusted to 1×10^6 cells/mL. HEK293 cells not expressing CTLA4 were used as a negative control. Thereafter, the cells were seeded in a 96-well V-bottom plate (Corning, #3894) at 100 μL/well and centrifuged at 4° C. for 5 min, and the supernatant was discarded. Then, the serially diluted antibody molecules were added to the 96-well plate at 100 μL/well, and the mixtures were well mixed. The antibody molecules could be serially diluted 3-fold from the highest final concentration of 500 nM to obtain a total of 12 concentrations. The cells were incubated at 4° C. for 1 h away from light.
Then, the cells in each well were rinsed twice with 100 μL of pre-cooled FACS buffer (PBS buffer containing 0.5% BSA) and centrifuged at 500 g at 4° C. for 5 min, and then the supernatant was discarded. […] Fluorescence signal values were read using a BD FACS CANTOII flow cytometer, and the data were processed and analyzed using FlowJo v10 (FlowJo, LLC) software.
In general terms: A flow cytometer gives signals particle by particle.

In another data set the test system is NCI-H929 cells. The experiment in a line: Cytotoxic killing experiment (Example 9.5), NCI-H929. As to conditions: 72 h, CellTiter-Glo; proteins up to 10 nM, mc-vc-PAB-MMAE up to 20 nM. As for the experimental part: The HEK293T-hBCMA, NCI-H929, HEK293T and SNU-16 cells were seeded in 96-well plates (Perkin Elmer, #6005225) respectively, with the following seeded cell number: 2500 cells/50 μL/well (HEK293T-hBCMA), 5000 cells/50 μL/well (NCI-H929), 2500 cells/50 μL/well (HEK293T), and 5000 cells/50 μL/well (SNU-16). Then, the plates were incubated overnight at 37° C. with 5% CO2. Then, a test sample serially pre-diluted was added at 50 μL/well. PR004433, PR004433-ADC and PR004432-ADC were diluted at a 3-fold concentration gradient from the highest final concentration of 10 nM, and mc-vc-PAB-MMAE was diluted at a 3-fold concentration gradient from the highest final concentration of 20 nM. In addition, a well without the test sample was set as a control well. Thereafter, the plates were incubated at 37° C. with 5% CO2 for 72 h, a CellTiter-Glo cell viability detection reagent (Promega, #G7573) was added, then the plates were incubated at room temperature for at least 10 min to obtain stable luminescence signals, and the luminescence values were detected using a microplate reader. The cell viability was calculated based on the luminescence values by the following formula:
Cell viability (%)=(A/B)×100%
In which, A=experimental well (target cells+test sample+medium); B=control well (target cells+medium)
The data were processed and analyzed by plotting using GraphPad Prism 8 software, and binding curves of the antibodies to target cells, EC50 values and other parameters were obtained through four-parameter nonlinear fitting.
In this example, the method described in 0 was used to study the specific cell killing activity of antigen-binding proteins PR006468 (including a mouse IgG2c hinge region), PR004433 (including a human IgG1 hinge region) and coupling products PR006468-ADC and PR004433-ADC thereof against tumor cells NCI-H929 (ATCC, CRL-9068) highly expressing human BCMA.
In this example, the method described in 0 was used to study the specific cell killing activity of PR005744 and a coupling product PR005744-ADC thereof against tumor cells NCI-H929 (ATCC, CRL-9068) highly expressing human BCMA.

The target of data set [2] is T2, NCI-H929 cells highly expressing human BCMA (Homo sapiens, UniProt Q02223).
T2 construct: tumor cells NCI-H929 (ATCC, CRL-9068) highly expressing human BCMA; host or cells: NCI-H929
T2 sequence (Q02223 1-184): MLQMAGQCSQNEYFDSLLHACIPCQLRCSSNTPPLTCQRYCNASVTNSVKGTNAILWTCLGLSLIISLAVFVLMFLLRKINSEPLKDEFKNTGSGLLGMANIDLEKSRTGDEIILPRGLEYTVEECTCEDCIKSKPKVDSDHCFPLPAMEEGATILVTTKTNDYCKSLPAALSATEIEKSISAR
Briefly: FACS binding to NCI-H929 cells. The note with it: flow cytometry FACS. The protocol: Specifically, the cells were digested and resuspended in a DMEM complete medium, and the cell density was adjusted to 1×10^6 cells/mL. The cells were seeded in a 96-well V-bottom plate (Corning, #3894) at 100 μL/well, followed by the addition of test antibodies diluted in a 3-fold gradient at a concentration that was 2 times the final concentration, each at 100 μL/well. The cells were incubated at 4° C. for 1 h away from light. Thereafter, the cells in each well were rinsed twice with 100 μL of pre-cooled PBS, and centrifuged at 500 g at 4° C. for 5 min, and then the supernatant was discarded. Thereafter, a fluorescent secondary antibody (Alexa Fluor 488-conjugated AffiniPure Goat Anti-Human IgG, Fcγ Fragment Specific, Jackson ImmunoResearch Inc., #109-545-098, diluted in a 1:500 ratio) was added at 100 μL/well, and the plate was incubated at 4° C. for 30 min away from light. The cells in each well were then rinsed twice with 100 μL of pre-cooled PBS and centrifuged at 500 g at 4° C. for 5 min, and then the supernatant was discarded. Finally, the cells in each well were resuspended in 200 μL of pre-cooled PBS. Fluorescence signal values were read using a BD FACS CANTOII flow cytometer, and the data were processed and analyzed using FlowJo v10 (FlowJo, LLC) software.
This example further utilized the method described in 0 to study the binding ability of the HCAb antibody PR004433 and a variant molecule thereof to NCI-H929 cells (ATCC, CRL-9068) highly expressing human BCMA.

Data set [3] can be described thus: Molecular weight and coupling product components (DAR) by LC-MS. The note with it: non-reduced sample, lot CY20210203, before purification. From the text: In this example, liquid chromatography-mass spectrometry (LC-MS) was used to analyze the protein sample for molecular weight. Those skilled in the art can use different models of liquid chromatography (LC) and mass spectrometer (MS) to establish similar analytical methods according to the technical instructions and through experimental exploration. Only representative methods are listed in this example.
In certain specific embodiments, determination of the molecular weight of a protein sample required desaccharification on the sample to remove modifications such as saccharide chains, for example, the sample was processed with glycosidase PNGase F (NEB, #P0705L) at 37° C. for at least 4 h. For example, in all examples of the present invention, when the molecular weight of protein samples was determined, unless otherwise emphasized, the protein samples to be tested were subjected to desaccharification by the glycosidase PNGase F.
In certain specific embodiments, determination of the reduced molecular weight of a protein sample required reduction on the sample, for example, the sample was processed with […] dithiothreitol (DTT) at 37° C. for 10 min. For example, in all examples of the present invention, the samples after reduction were called reduced samples, and the samples without reduction were called non-reduced samples.
Buffer A was 0.1% formic acid FA dissolved in water, and buffer B was 0.1% formic acid FA dissolved in acetonitrile. Injection: about 1 μg; flow rate: 0.3 mL/min; and operation temperature: 80° C. When reduced samples were tested, buffer A and buffer B were mixed within 12 min to form a linear gradient: using 10-60% B for the first 8 min and 80% B for the last 4 min. When non-reduced samples were tested, buffer A and buffer B were mixed within 9 min to form a linear gradient: using 15-60% B for the first 6 min and 80% B for the last 3 min.
Buffer A was 0.1% formic acid FA dissolved in water, and buffer B was 0.1% formic acid FA dissolved in acetonitrile. Injection: about 10 μL; flow rate: 0.2-0.5 mL/min; and operation temperature: 80° C. The detection wavelength was 214 nm.
In certain specific embodiments, the model of a mass spectrometer used was AB Sceix X500B, and the operating mode thereof was TOF-MS; when reduced samples were tested, a scanning range was 600-4000 m/z; when non-reduced samples were tested, a scanning range was 900-6000 m/z. Original mass spectrums were deconvolved by Sceix OS software to obtain molecular weight maps.
In certain other specific embodiments, the model of a mass spectrometer used was Waters Xevo G2-XS Q-TOF, and a molecular weight scanning range thereof was 500-4000 Da. Original mass spectrums were deconvolved by Water MaxEnt or Agilent MassHunter BioConfirm software.
In multiple specific embodiments of the present application, the combination set of different LC and MS conditions was used to achieve LC-MS combination for determining the molecular weight of protein samples. For example, in 0 and 0, the combination of conditions used was (chromatography column: ACQUITY UPLC Protein BEH C4; LC instrument: Waters Acquity UPLC; MS instrument: Waters Xevo G2-XS Q-TOF).

B1: PR000020: anti-CTLA4 fully human HCAb antibody, SEQ ID NO: 64 (antibody)
heavy: SEVQLVETGGGLIQPGGSLRLSCAASGLNVSRHYLSWVRQAPGKGLEWVAVIYSGGGIEYVDSVKGRFTISRDNANNTLYLQMRSLRTEDSAVYYCARAIPRPHGSDIWGQGTMVTVSS[not shown - human IgG1 Fc]
With B1, the “binding activity to HEK293/hCTLA4 cells” value in data set [1] is reported as “strong specific binding activity”.

B2: PR000020-ADC (conjugate)
heavy: SEVQLVETGGGLIQPGGSLRLSCAASGLNVSRHYLSWVRQAPGKGLEWVAVIYSGGGIEYVDSVKGRFTISRDNANNTLYLQMRSLRTEDSAVYYCARAIPRPHGSDIWGQGTMVTVSS[not shown - human IgG1 Fc]
With B2, the “binding activity to HEK293/hCTLA4 cells” value in data set [1] is “strong specific binding activity”.

B3: PR005744-ADC (conjugate)
chain 1: QVQLVESGGGVVQPGRSLRLSCAATGFTFSSYGMYWVRQAPGKGLEWVAAIWNDGSNNYYADSVKGRFTISRDDSKNTLNLQMNSLRAEDTAMYYCARDRLPMASLRYFDWLGVMDAWGQGTSVTVSSASTKGPSVFPLAPSSKSTSGGTAALGCLVKDYFPEPVTVSWNSGALTSGVHTFPAVLQSSGLYSLSSVVTVPSSSLGTQTYICNVNHKPSNTKVDKKVEPKSC
chain 2: [not shown - about 100 residues]FTFGQGTKLEIKRTVAAPSVFIFPPSDEQLKSGTASVVCLLNNFYPREAKVQWKVDNALQSGNSQESVTEQDSKDSTYSLSSTLTLSKADYEKHKVYACEVTHQGLSSPVTKSFNRGECEVQLVETGGGLIQPGGSLRLSCAASGFTVSDSYMTWVRQAPGKGLEWVSVIFSGGRTYYSDSVKGRFTISRDNAKNTLYLQMNSLRAEDTALYYCARRNYDDTRGTDVFDIWGQGTMVTVSS[not shown - human IgG1 Fc]
As for B3, the “cytotoxic killing against NCI-H929 cells” value in the data set on NCI-H929 cells is “effective and specific cytotoxic killing”. Besides, the “binding ability to NCI-H929 cells” value in data set [2] is recorded as “can specifically bind”.

B4: PR004433-PROTAC (conjugate)
heavy: EVQLVETGGGLIQPGGSLRLSCAASGFTVSDSYMTWVRQAPGKGLEWVSVIFSGGRTYYSDSVKGRFTISRDNAKNTLYLQMNSLRAEDTALYYCARRNYDDTRGTDVFDIWGQGTMVTVSS[not shown - human IgG1 Fc]
With B4, in data set [2], the “binding ability to NCI-H929 cells” value was “can specifically bind”. In data set [3], the “Content of DAR = 2 component” value was 66.4% and the “Content of DAR = 4 component” value is given as 3.5%.

B5: PR006468-ADC (conjugate)
heavy: EVQLVETGGGLIQPGGSLRLSCAASGFTVSDSYMTWVRQAPGKGLEWVSVIFSGGRTYYSDSVKGRFTISRDNAKNTLYLQMNSLRAEDTALYYCARRNYDDTRGTDVFDIWGQGTMVTVSSEPRVPITQNPCPPLKE[not shown - human IgG1 Fc with changes]
With B5, the “cytotoxic killing against NCI-H929 cells” value in the data set on NCI-H929 cells was “effective and specific cytotoxic killing”.
